# Measurements published in the supplement of paper PMC8728848.
# The list shows a part of the results.
# Experiments:
# Assay in all cases: glycan array binding signal (z-score within array); higher = stronger binding
# Conditions in all cases: glycan notation: IUPAC condensed, linker removed
# [1] = molecular target: Neu5Ac(a2-6)Gal(b1-4)GlcNAc(b1-3)Gal(b1-4)GlcNAc(b1-3)GalNAc
# Summary of the method: (§1)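 The binding signal is a Z-score computed within each array and averaged over linkers. Arrays of the same protein sequence at different concentrations or buffers were also averaged together. Data originate from 3228 arrays in the Consortium for Functional Glycomics database, kept only where the protein sequence was available.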
# [2] = molecular target: Neu5Ac(a2-6)Gal(b1-4)GlcNAc(b1-3)Gal(b1-4)GlcNAc(b1-3)[Neu5Ac(a2-6)Gal(b1-4)GlcNAc(b1-3)Gal(b1-4)GlcNAc(b1-6)]GalNAc
# Summary of the method: as §1
# [3] = molecular target: Neu5Ac(a2-6)Gal(b1-4)GlcNAc(b1-3)Gal(b1-4)GlcNAc(b1-6)[Gal(b1-3)]GalNAc
# Summary of the method: as §1
# [4] = molecular target: Neu5Ac(a2-6)Gal(b1-4)GlcNAc(b1-3)Gal(b1-4)[Fuc(a1-3)]GlcNAc(b1-3)Gal(b1-4)[Fuc(a1-3)]GlcNAc
# Summary of the method: as §1
# [5] = molecular target: Neu5Ac(a2-6)Gal(b1-4)GlcNAc(b1-3)GalNAc
# Summary of the method: as §1
# [6] = molecular target: Neu5Ac(a2-6)Gal(b1-4)GlcNAc(b1-3)[Neu5Ac(a2-6)Gal(b1-4)GlcNAc(b1-6)]GalNAc
# Summary of the method: as §1
# [7] = molecular target: Neu5Ac(a2-6)Gal(b1-4)GlcNAc(b1-6)GalNAc
# Summary of the method: as §1
# [8] = molecular target: Neu5Ac(a2-6)Gal(b1-4)GlcNAc(b1-6)[Gal(b1-3)GlcNAc(b1-3)]Gal(b1-4)Glc
# Summary of the method: as §1
# [9] = molecular target: Neu5Ac(a2-6)Gal(b1-4)GlcNAc(b1-6)[Gal(b1-3)]GalNAc
# Summary of the method: as §1
# [10] = molecular target: Neu5Ac(a2-6)Gal(b1-4)GlcNAc6S
# Summary of the method: as §1
# Neu5Ac(a2-6)GalNAc = molecular target: Neu5Ac(a2-6)GalNAc
# Summary of the method: as §1
# [11] = molecular target: Neu5Ac(a2-6)GalNAc(b1-4)GlcNAc
# Summary of the method: as §1
# [12] = molecular target: Neu5Ac(a2-6)GalNAc(b1-4)GlcNAc6S
# Summary of the method: as §1
# [13] = molecular target: Neu5Ac(a2-6)GlcNAc(b1-4)GlcNAc
# Summary of the method: as §1
# [14] = molecular target: Neu5Ac(a2-6)GlcNAc(b1-4)GlcNAc(b1-4)GlcNAc
# Summary of the method: as §1
# Neu5Ac(a2-8)Neu5Ac = molecular target: Neu5Ac(a2-8)Neu5Ac
# Summary of the method: as §1
# [15] = molecular target: Neu5Ac(a2-8)Neu5Ac(a2-3)Gal(b1-3)GalNAc(b1-4)[Neu5Ac(a2-3)]Gal(b1-4)Glc
# Summary of the method: as §1
# [16] = molecular target: Neu5Ac(a2-8)Neu5Ac(a2-3)Gal(b1-3)GalNAc(b1-4)[Neu5Ac(a2-8)Neu5Ac(a2-3)]Gal(b1-4)Glc
# Summary of the method: as §1
# [17] = molecular target: Neu5Ac(a2-8)Neu5Ac(a2-3)Gal(b1-4)Glc
# Summary of the method: as §1
# [18] = molecular target: Neu5Ac(a2-8)Neu5Ac(a2-3)Gal(b1-4)GlcNAc
# Summary of the method: as §1
# [19] = molecular target: Neu5Ac(a2-8)Neu5Ac(a2-3)[Gal(b1-3)GalNAc(b1-4)]Gal(b1-4)Glc
# Summary of the method: as §1
# [20] = molecular target: Neu5Ac(a2-8)Neu5Ac(a2-3)[GalNAc(b1-4)]Gal(b1-4)Glc
# Summary of the method: as §1
# [21] = molecular target: Neu5Ac(a2-8)Neu5Ac(a2-8)Neu5Ac
# Summary of the method: as §1
# [22] = molecular target: Neu5Ac(a2-8)Neu5Ac(a2-8)Neu5Ac(a2-3)Gal(b1-4)Glc
# Summary of the method: as §1
# [23] = molecular target: Neu5Ac(a2-8)Neu5Ac(a2-8)Neu5Ac(a2-3)[Gal(b1-3)GalNAc(b1-4)]Gal(b1-4)Glc
# Summary of the method: as §1
# [24] = molecular target: Neu5Ac(a2-8)Neu5Ac(a2-8)Neu5Ac(a2-3)[GalNAc(b1-4)]Gal(b1-4)Glc
# Summary of the method: as §1
# [25] = molecular target: Neu5Ac(a2-8)Neu5Ac(a2-8)Neu5Ac(a2-8)Neu5Ac(a2-3)[GalNAc(b1-4)]Gal(b1-4)Glc
# Summary of the method: as §1
# [26] = molecular target: Neu5Ac(a2-8)Neu5Gc(a2-3)Gal(b1-4)GlcNAc
# Summary of the method: as §1
# [27] = molecular target: Neu5Ac(b2-6)Gal(b1-4)GlcNAc
# Summary of the method: as §1
# Neu5Ac(b2-6)GalNAc = molecular target: Neu5Ac(b2-6)GalNAc
# Summary of the method: as §1
# [28] = molecular target: Neu5Ac9Ac(a2-3)Gal(b1-3)GlcNAc
# Summary of the method: as §1
# [29] = molecular target: Neu5Ac9Ac(a2-3)Gal(b1-4)GlcNAc
# Summary of the method: as §1
# [30] = molecular target: Neu5Ac9Ac(a2-6)Gal(b1-4)GlcNAc
# Summary of the method: as §1
# [31] = molecular target: Neu5Gc(a2-3)Gal(b1-3)GlcNAc
# Summary of the method: as §1
# [32] = molecular target: Neu5Gc(a2-3)Gal(b1-3)[Fuc(a1-4)]GlcNAc
# Summary of the method: as §1
# Neu5Gc(a2-3)Gal(b1-4)Glc = molecular target: Neu5Gc(a2-3)Gal(b1-4)Glc
# Summary of the method: as §1
# [33] = molecular target: Neu5Gc(a2-3)Gal(b1-4)GlcNAc
# Summary of the method: as §1
# [34] = molecular target: Neu5Gc(a2-3)Gal(b1-4)GlcNAc(b1-3)Gal(b1-4)GlcNAc(b1-2)Man(a1-3)[Neu5Gc(a2-3)Gal(b1-4)GlcNAc(b1-3)Gal(b1-4)GlcNAc(b1-2)Man(a1-6)]Man(b1-4)GlcNAc(b1-4)GlcNAc
# Summary of the method: as §1
# [35] = molecular target: Neu5Gc(a2-3)Gal(b1-4)[Fuc(a1-3)]GlcNAc
# Summary of the method: as §1
# [36] = molecular target: Neu5Gc(a2-6)Gal(b1-4)GlcNAc
# Summary of the method: as §1
# Neu5Gc(a2-6)GalNAc = molecular target: Neu5Gc(a2-6)GalNAc
# Summary of the method: as §1
# [37] = molecular target: Neu5Gc(a2-8)Neu5Ac(a2-3)Gal(b1-4)GlcNAc
# Summary of the method: as §1
# [38] = molecular target: Neu5Gc(a2-8)Neu5Gc(a2-3)Gal(b1-4)GlcNAc
# Summary of the method: as §1
# [39] = molecular target: Neu5Gc(a2-8)Neu5Gc(a2-3)Gal(b1-4)GlcNAc(b1-3)Gal(b1-4)GlcNAc
# Summary of the method: as §1
# [40] = molecular target: Neu5Gc(a2-8)Neu5Gc(a2-6)Gal(b1-4)GlcNAc
# Summary of the method: as §1
# [41] = molecular target: Neu5Gc(b2-6)Gal(b1-4)GlcNAc
# Summary of the method: as §1
binder,measurement,setting,value
Pwp3 (Candida glabrata) (protein) MGSSHHHHHHSSGLVPRGSHMASKNPVDFTTVCQFPDNFSKKPGFLATTARLGLWITGNSYKELLNYPGTFTLTTQQASTTTPNIQLRGTDLFTTIYGLTVYPLYLLVELQGYFVPTQSGMYTFSLTGSDDAAIIFIGNPSTFPCDAFKTWPQATANDITVTDSINPSRTLYMVKGVAYPLRIAYYNGLGNGVLNAAFTDPSGTKRTDWNGYIWQYDQCSTCTYK,glycan array binding signal (z-score),[1],-0.326
same,glycan array binding signal (z-score),[2],-0.47
same,glycan array binding signal (z-score),[3],0.018
same,glycan array binding signal (z-score),[4],-1.24
same,glycan array binding signal (z-score),[5],-0.314
same,glycan array binding signal (z-score),[6],0.771
same,glycan array binding signal (z-score),[7],0.084
same,glycan array binding signal (z-score),[8],-0.263
same,glycan array binding signal (z-score),[9],-0.518
same,glycan array binding signal (z-score),[10],-0.208
same,glycan array binding signal (z-score),Neu5Ac(a2-6)GalNAc,-0.159
same,glycan array binding signal (z-score),[11],-0.164
same,glycan array binding signal (z-score),[12],-0.339
same,glycan array binding signal (z-score),[13],0.018
same,glycan array binding signal (z-score),[14],0.361
same,glycan array binding signal (z-score),Neu5Ac(a2-8)Neu5Ac,-0.057
same,glycan array binding signal (z-score),[15],-0.672
same,glycan array binding signal (z-score),[16],-0.209
same,glycan array binding signal (z-score),[17],-0.054
same,glycan array binding signal (z-score),[18],-0.089
same,glycan array binding signal (z-score),[19],-0.185
same,glycan array binding signal (z-score),[20],4.12
same,glycan array binding signal (z-score),[21],0.951
same,glycan array binding signal (z-score),[22],-1.21
same,glycan array binding signal (z-score),[23],0.117
same,glycan array binding signal (z-score),[24],1.31
same,glycan array binding signal (z-score),[25],-0.198
same,glycan array binding signal (z-score),[26],-0.251
same,glycan array binding signal (z-score),[27],0.194
same,glycan array binding signal (z-score),Neu5Ac(b2-6)GalNAc,-0.118
same,glycan array binding signal (z-score),[28],-0.218
same,glycan array binding signal (z-score),[29],-1.06
same,glycan array binding signal (z-score),[30],-0.399
same,glycan array binding signal (z-score),[31],-1.02
same,glycan array binding signal (z-score),[32],-0.136
same,glycan array binding signal (z-score),Neu5Gc(a2-3)Gal(b1-4)Glc,-0.033
same,glycan array binding signal (z-score),[33],0.616
same,glycan array binding signal (z-score),[34],0.061
same,glycan array binding signal (z-score),[35],-0.672
same,glycan array binding signal (z-score),[36],0.57
same,glycan array binding signal (z-score),Neu5Gc(a2-6)GalNAc,-0.448
same,glycan array binding signal (z-score),[37],0.166
same,glycan array binding signal (z-score),[38],0.001
same,glycan array binding signal (z-score),[39],1.5
same,glycan array binding signal (z-score),[40],0.107
same,glycan array binding signal (z-score),[41],1.26
